# Data as given in the supplement of paper PMC10037445.
# “And” between values parts separate entries of the source, which are not always exact repeats. Equal entries are not always repeated. ± gives the standard deviation of the averaged measurements. Whole data set: some 2,900 compounds, median “NF-kB SEAP reporter activity, fold change vs agonist alone” near 0.99, cut for the highest 2% near 2.6. Some of the results follow.
# Key:
# [1] = test system: RAW-Dual; assay: NF-kB SEAP reporter activity, fold change vs agonist alone; cytotoxicity flag (confluency mask): not cytotoxic; higher = enhanced NF-kB activity
# Procedure, shortened: (§1)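 RAW-Dual macrophages (50,000 cells/well in DMEM, 384-well plates) received 50 nL of library stock by pin tool, then a PRR agonist 1 h later, and were kept at 37 °C, 5% CO2. After 20 hours, supernatant was read for IRF by QuantiLuc luminescence and for NF-κB by QuantiBlue absorbance at 620 nm. Reporter activity is fold change over agonist-alone wells. Cytotoxic wells had IncuCyte confluency below 70% of agonist controls in both mask sets.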
# [2] = test system: RAW-Dual; assay: NF-kB SEAP reporter activity, fold change vs agonist alone; higher = enhanced NF-kB activity
# Procedure, shortened: as §1
# [3] = test system: RAW-Dual; assay: NF-kB SEAP reporter activity, fold change vs agonist alone; cytotoxicity flag (confluency mask): cytotoxic (confluency <70% of control); higher = enhanced NF-kB activity
# Procedure, shortened: as §1
# [4] = agonist: ODN 1826 (TLR9) 0.5 ug/mL
# [5] = agonist: Pam2CSK4 (TLR2/6) 0.1 ug/mL
# [6] = agonist: Pam3CSK4 (TLR2/1) 0.1 ug/mL
# [7] = library stock concentration (final ~1000-fold dilution): 10 mM, cytotoxicity flag (confluency mask): not cytotoxic, agonist: Imiquimod (TLR7) […]
# [8] = library stock concentration (final ~1000-fold dilution): 10 mM, cytotoxicity flag (confluency mask): not cytotoxic, agonist: MPLA (TLR4) […]
# [9] = library stock concentration (final ~1000-fold dilution): 10 mM, cytotoxicity flag (confluency mask): cytotoxic (confluency <70% of control), agonist: Imiquimod (TLR7) […]
# [10] = library stock concentration (final ~1000-fold dilution): 10 mM, cytotoxicity flag (confluency mask): cytotoxic (confluency <70% of control), agonist: MPLA (TLR4) […]
smiles,measurement,setting,value
CC1(C)C(C(=O)O)N2C(=O)CC2S1(=O)=O (centres undefined) (library stock concentration (final ~1000-fold dilution): 10 mM),NF-kB SEAP reporter activity,[1]; agonist: LPS (TLR4) 0.1 ug/mL,1.04 and 0.881
same,NF-kB SEAP reporter activity,[1]; [4],1.01 and 1.03
same,NF-kB SEAP reporter activity,[1]; [5],0.96 and 1.14
same,NF-kB SEAP reporter activity,[1]; [6],1.05 and 1.19
O=C(Nc1ccc(Cl)cc1)C1CCCN(C(=O)c2cccc(-c3ccco3)c2)C1 (centres undefined) (library stock concentration (final ~1000-fold dilution): 10 mM),NF-kB SEAP reporter activity,[1]; agonist: LPS (TLR4) 0.1 ug/mL,1.39
same,NF-kB SEAP reporter activity,[1]; [4],0.788
same,NF-kB SEAP reporter activity,[1]; [5],0.498
same,NF-kB SEAP reporter activity,[1]; [6],0.668
O=C(Nc1ccc(Cl)cc1)C1CCCN(C(=O)c2cccc(-c3ccco3)c2)C1 (centres undefined),NF-kB SEAP reporter activity,[2]; [7],0.816
same,NF-kB SEAP reporter activity,[2]; [8],1.03
CC1(C)CCC2(NC(=O)C(C)(F)F)CCC3(C)C(C(=O)C=C4C5(C)C=C(C#N)C(=O)C(C)(C)C5CCC43C)C2C1 (centres undefined) (library stock concentration (final ~1000-fold dilution): 10 mM),NF-kB SEAP reporter activity,[3]; agonist: LPS (TLR4) 0.1 ug/mL,0.358 ± 0.053
same,NF-kB SEAP reporter activity,[3]; [4],0.173 ± 0.0087
same,NF-kB SEAP reporter activity,[3]; [5],0.0759 ± 0.018
same,NF-kB SEAP reporter activity,[3]; [6],0.163 ± 0.0017
CC1(C)CCC2(NC(=O)C(C)(F)F)CCC3(C)C(C(=O)C=C4C5(C)C=C(C#N)C(=O)C(C)(C)C5CCC43C)C2C1 (centres undefined),NF-kB SEAP reporter activity,[2]; [9],0.14 ± 0.006
same,NF-kB SEAP reporter activity,[2]; [10],0.254 ± 0.0072
CC(C)N(CCCNC(=O)Nc1ccc(C(C)(C)C)cc1)CC1OC(n2cc(Br)c3c(N)ncnc32)C(O)C1O (centres undefined) (library stock concentration (final ~1000-fold dilution): 10 mM),NF-kB SEAP reporter activity,[1]; agonist: LPS (TLR4) 0.1 ug/mL,1.08
same,NF-kB SEAP reporter activity,[1]; [4],0.63
same,NF-kB SEAP reporter activity,[1]; [5],1.01
same,NF-kB SEAP reporter activity,[1]; [6],0.996
CC(C)N(CCCNC(=O)Nc1ccc(C(C)(C)C)cc1)CC1OC(n2cc(Br)c3c(N)ncnc32)C(O)C1O (centres undefined),NF-kB SEAP reporter activity,[2]; [7],1.18
same,NF-kB SEAP reporter activity,[2]; [8],1.39
CC(C)(C(=O)c1cccnc1)c1cccnc1 (library stock concentration (final ~1000-fold dilution): 10 mM),NF-kB SEAP reporter activity,[1]; agonist: LPS (TLR4) 0.1 ug/mL,1.07
same,NF-kB SEAP reporter activity,[1]; [4],0.974
same,NF-kB SEAP reporter activity,[1]; [5],1.08
same,NF-kB SEAP reporter activity,[1]; [6],1.08
CC(C)(C(=O)c1cccnc1)c1cccnc1,NF-kB SEAP reporter activity,[2]; [8],1.01
O=C(Cc1ccc(-c2ccc(OCCN3CCOCC3)cc2)cn1)NCc1ccccc1 (library stock concentration (final ~1000-fold dilution): 10 mM),NF-kB SEAP reporter activity,[1]; agonist: LPS (TLR4) 0.1 ug/mL,4.55
same,NF-kB SEAP reporter activity,[1]; [4],3.36
O=C(Cc1ccc(-c2ccc(OCCN3CCOCC3)cc2)cn1)NCc1ccccc1,NF-kB SEAP reporter activity,[2]; [7],2.63
O=C(NOCCO)c1ccc2cncn2c1Nc1ccc(I)cc1F (library stock concentration (final ~1000-fold dilution): 10 mM),NF-kB SEAP reporter activity,[1]; agonist: LPS (TLR4) 0.1 ug/mL,0.178
same,NF-kB SEAP reporter activity,[1]; [4],0.3
same,NF-kB SEAP reporter activity,[1]; [5],0.0594
same,NF-kB SEAP reporter activity,[1]; [6],0.121
O=C(NOCCO)c1ccc2cncn2c1Nc1ccc(I)cc1F,NF-kB SEAP reporter activity,[2]; [7],0.121
same,NF-kB SEAP reporter activity,[2]; [8],0.192
CCOc1cc(C(=O)N2CCC(N3CCN(C)CC3)CC2)ccc1Nc1ncc2c(n1)N(C1CCCC1)c1ccccc1C(=O)N2C (library stock concentration (final ~1000-fold dilution): 10 mM),NF-kB SEAP reporter activity,[3]; agonist: LPS (TLR4) 0.1 ug/mL,5.49
same,NF-kB SEAP reporter activity,[3]; [4],1.31
same,NF-kB SEAP reporter activity,[3]; [5],1.36
same,NF-kB SEAP reporter activity,[3]; [6],3.42
CCOc1cc(C(=O)N2CCC(N3CCN(C)CC3)CC2)ccc1Nc1ncc2c(n1)N(C1CCCC1)c1ccccc1C(=O)N2C,NF-kB SEAP reporter activity,[2]; [9],1.44
same,NF-kB SEAP reporter activity,[2]; [10],2.71
O=c1cc(-c2ccc(O)c(O)c2)oc2cc(O)cc(O)c12,NF-kB SEAP reporter activity,[2]; [7],1.46
same,NF-kB SEAP reporter activity,[2]; [8],1.33
O=c1cc(-c2ccc(O)c(O)c2)oc2cc(O)cc(O)c12 (library stock concentration (final ~1000-fold dilution): 10 mM),NF-kB SEAP reporter activity,[1]; agonist: LPS (TLR4) 0.1 ug/mL,1.09
same,NF-kB SEAP reporter activity,[1]; [4],0.9
same,NF-kB SEAP reporter activity,[1]; [5],1.52
same,NF-kB SEAP reporter activity,[1]; [6],0.881
CCC1C(COc2nccc3cc(C(N)=O)c(OC)cc23)NC(=O)C1F (centres undefined),NF-kB SEAP reporter activity,"[2]; library stock concentration (final ~1000-fold dilution): .1 mM, cytotoxicity flag (confluency mask): not cytotoxic, agonist: Imiquimod (TLR7) […]",0.22
same,NF-kB SEAP reporter activity,"[2]; library stock concentration (final ~1000-fold dilution): .1 mM, cytotoxicity flag (confluency mask): not cytotoxic, agonist: MPLA (TLR4) […]",0.617
CCC1C(COc2nccc3cc(C(N)=O)c(OC)cc23)NC(=O)C1F (centres undefined) (library stock concentration (final ~1000-fold dilution): .1 mM),NF-kB SEAP reporter activity,[1]; agonist: LPS (TLR4) 0.1 ug/mL,0.475
same,NF-kB SEAP reporter activity,[1]; [4],0.244
same,NF-kB SEAP reporter activity,[1]; [5],0.151
same,NF-kB SEAP reporter activity,[1]; [6],0.199
Cc1cc(Nc2ccc(NC(=O)c3ccc(Nc4ccnc5ccccc45)cc3)cc2)nc(N)n1 (library stock concentration (final ~1000-fold dilution): 10 mM),NF-kB SEAP reporter activity,[1]; agonist: LPS (TLR4) 0.1 ug/mL,2.34
same,NF-kB SEAP reporter activity,[1]; [4],0.228
same,NF-kB SEAP reporter activity,[1]; [5],0.856
same,NF-kB SEAP reporter activity,[1]; [6],1.34
Cc1cc(Nc2ccc(NC(=O)c3ccc(Nc4ccnc5ccccc45)cc3)cc2)nc(N)n1,NF-kB SEAP reporter activity,[2]; [7],1.31
same,NF-kB SEAP reporter activity,[2]; [8],2.36
CCOc1nc2cccc(C(=O)OCc3oc(=O)oc3C)c2n1Cc1ccc(-c2ccccc2-c2nc(=O)o[nH]2)cc1,NF-kB SEAP reporter activity,[2]; [7],1.15
same,NF-kB SEAP reporter activity,[2]; [8],0.931
CCOc1nc2cccc(C(=O)OCc3oc(=O)oc3C)c2n1Cc1ccc(-c2ccccc2-c2nc(=O)o[nH]2)cc1 (library stock concentration (final ~1000-fold dilution): 10 mM),NF-kB SEAP reporter activity,[1]; agonist: LPS (TLR4) 0.1 ug/mL,1.22
same,NF-kB SEAP reporter activity,[1]; [4],0.903
same,NF-kB SEAP reporter activity,[1]; [5],1.22
same,NF-kB SEAP reporter activity,[1]; [6],0.941
O=c1cc(N2CCOCC2)oc2c1ccc1ccccc12,NF-kB SEAP reporter activity,"[2]; library stock concentration (final ~1000-fold dilution): 2 mM, cytotoxicity flag (confluency mask): not cytotoxic, agonist: Imiquimod (TLR7) […]",1.04
same,NF-kB SEAP reporter activity,"[2]; library stock concentration (final ~1000-fold dilution): 2 mM, cytotoxicity flag (confluency mask): not cytotoxic, agonist: MPLA (TLR4) […]",0.989
O=c1cc(N2CCOCC2)oc2c1ccc1ccccc12 (library stock concentration (final ~1000-fold dilution): 2 mM),NF-kB SEAP reporter activity,[1]; agonist: LPS (TLR4) 0.1 ug/mL,1.12
same,NF-kB SEAP reporter activity,[1]; [4],1
same,NF-kB SEAP reporter activity,[1]; [5],0.982
same,NF-kB SEAP reporter activity,[1]; [6],1.07
CC#CC(=O)N1CCC(n2c(=O)n(-c3ccc(Oc4ccccc4)cc3)c3c(N)ncnc32)C1.Cl (centres undefined),NF-kB SEAP reporter activity,[2]; [7],0.734
same,NF-kB SEAP reporter activity,[2]; [8],0.814
